Measurements: paper PMC12820563, “FoxP3 forms a head-to-head dimer in vivo and stabilizes its multimerization on adjacent microsatellites”
This is one part of the list.

molecular target: T1, MBP-FoxP1dN (Mus musculus, UniProt P58462 326-579); experiment: PD-seq (MBP pull-down with sequencing); 20 mM Tris-HCl pH 7.5, 100 mM NaCl, 1.5 mM MgCl2, 0.4 uM protein, 0.1 uM dsDNA library, 30 min, room temperature, amylose pull-down; high values mean tight binding; conditions: protein: recombinant; tags: His6-MBP; chain copies: 2; dsDNA, one strand shown
T1 sequence: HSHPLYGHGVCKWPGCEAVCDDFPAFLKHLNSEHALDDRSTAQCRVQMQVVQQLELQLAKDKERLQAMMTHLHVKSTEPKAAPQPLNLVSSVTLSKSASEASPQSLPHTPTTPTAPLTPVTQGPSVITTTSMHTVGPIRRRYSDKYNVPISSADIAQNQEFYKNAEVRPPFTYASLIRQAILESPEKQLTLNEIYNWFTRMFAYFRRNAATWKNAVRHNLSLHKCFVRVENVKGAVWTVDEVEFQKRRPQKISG
How it was run: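 In Tris pH 7.5 buffer with NaCl and MgCl2, 0.4 µM His6-MBP-tagged mouse FoxP3 or FoxP1 fragment lacking the N-terminus, from E. coli, met 0.1 µM Klenow-filled double-stranded degenerate DNA library for 30 min at room temperature. Three washes on amylose resin followed capture of the complexes, then proteinase K release of DNA, PCR barcoding and Illumina sequencing. Binding is taken as pooled-replicate reads-per-million enrichment of pull-down relative to input.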

| Sequence | binding signal |
| --- | --- |
| GATGATTGTTCTCCCAGCTGATGAATTTCCGAGGTCGAGTAAACAAATTTTCCTAATCTTTCTGTTCAAGCGCCATCTAC | 0.721 RPM ratio (pull-down/input) |
| GATGATTGTTCTCCCAGCTGATGAATTCTTTGCTTCGAGTAAACAAATTTTCCTAATCTTTCTGTTCAAGCGCCATCTAC | 0.901 RPM ratio (pull-down/input) |
| GATGATTGTTCTCCCAGCTGATGAATTAGAGGCCTCGAGTAAACAAATTTTCCTAATCTTTCTGTTCAAGCGCCATCTAC | 0.968 RPM ratio (pull-down/input) |
| GATGATTGTTCTCCCAGCTGATGAATTCTACGAGTCGAGTAAACAAATTTTCCTAATCTTTCTGTTCAAGCGCCATCTAC | 0.776 RPM ratio (pull-down/input) |
| GATGATTGTTCTCCCAGCTGATGAATTGTGCGAATCGAGTAAACAAATTTTCCTAATCTTTCTGTTCAAGCGCCATCTAC | 1.1 RPM ratio (pull-down/input) |
| GATGATTGTTCTCCCAGCTGATGAATTAATCCCTTCGAGTAAACAAATTTTCCTAATCTTTCTGTTCAAGCGCCATCTAC | 0.898 RPM ratio (pull-down/input) |
| GATGATTGTTCTCCCAGCTGATGAATTTGTTACGTCGAGTAAACAAATTTTCCTAATCTTTCTGTTCAAGCGCCATCTAC | 1.25 RPM ratio (pull-down/input) |
| GATGATTGTTCTCCCAGCTGATGAATTCGAACGATCGAGTAAACAAATTTTCCTAATCTTTCTGTTCAAGCGCCATCTAC | 0.851 RPM ratio (pull-down/input) |
| GATGATTGTTCTCCCAGCTGATGAATTTAAACAGTCGAGTAAACAAATTTTCCTAATCTTTCTGTTCAAGCGCCATCTAC | 1.06 RPM ratio (pull-down/input) |
| GATGATTGTTCTCCCAGCTGATGAATTGGACTATTCGAGTAAACAAATTTTCCTAATCTTTCTGTTCAAGCGCCATCTAC | 0.893 RPM ratio (pull-down/input) |
| GATGATTGTTCTCCCAGCTGATGAATTAGTGCTATCGAGTAAACAAATTTTCCTAATCTTTCTGTTCAAGCGCCATCTAC | 1.15 RPM ratio (pull-down/input) |
| GATGATTGTTCTCCCAGCTGATGAATTACCTGAGTCGAGTAAACAAATTTTCCTAATCTTTCTGTTCAAGCGCCATCTAC | 0.889 RPM ratio (pull-down/input) |
| GATGATTGTTCTCCCAGCTGATGAATTAGAAGGCTCGAGTAAACAAATTTTCCTAATCTTTCTGTTCAAGCGCCATCTAC | 0.8 RPM ratio (pull-down/input) |
| GATGATTGTTCTCCCAGCTGATGAATTATAAGCTTCGAGTAAACAAATTTTCCTAATCTTTCTGTTCAAGCGCCATCTAC | 0.917 RPM ratio (pull-down/input) |
| GATGATTGTTCTCCCAGCTGATGAATTCCTTGGTTCGAGTAAACAAATTTTCCTAATCTTTCTGTTCAAGCGCCATCTAC | 0.835 RPM ratio (pull-down/input) |
| GATGATTGTTCTCCCAGCTGATGAATTATGAGGTTCGAGTAAACAAATTTTCCTAATCTTTCTGTTCAAGCGCCATCTAC | 0.872 RPM ratio (pull-down/input) |

| Sequence | binding signal |
| --- | --- |
| GATGATTGTTCTCCCAGCTGATGAATTGCGCGGCTCGAGTAAACAAATTTTCCTAATCTTTCTGTTCAAGCGCCATCTAC | 0.972 RPM ratio (pull-down/input) |
| GATGATTGTTCTCCCAGCTGATGAATTGGGAAGATCGAGTAAACAAATTTTCCTAATCTTTCTGTTCAAGCGCCATCTAC | 0.839 RPM ratio (pull-down/input) |
| GATGATTGTTCTCCCAGCTGATGAATTCGCCACATCGAGTAAACAAATTTTCCTAATCTTTCTGTTCAAGCGCCATCTAC | 0.978 RPM ratio (pull-down/input) |
| GATGATTGTTCTCCCAGCTGATGAATTTTAGTTATCGAGTAAACAAATTTTCCTAATCTTTCTGTTCAAGCGCCATCTAC | 1.18 RPM ratio (pull-down/input) |
| GATGATTGTTCTCCCAGCTGATGAATTGAACACTTCGAGTAAACAAATTTTCCTAATCTTTCTGTTCAAGCGCCATCTAC | 0.934 RPM ratio (pull-down/input) |
| GATGATTGTTCTCCCAGCTGATGAATTAAGGGAGTCGAGTAAACAAATTTTCCTAATCTTTCTGTTCAAGCGCCATCTAC | 0.82 RPM ratio (pull-down/input) |
| GATGATTGTTCTCCCAGCTGATGAATTGACATGTTCGAGTAAACAAATTTTCCTAATCTTTCTGTTCAAGCGCCATCTAC | 1.31 RPM ratio (pull-down/input) |
| GATGATTGTTCTCCCAGCTGATGAATTTCCAAAGTCGAGTAAACAAATTTTCCTAATCTTTCTGTTCAAGCGCCATCTAC | 0.782 RPM ratio (pull-down/input) |
| GATGATTGTTCTCCCAGCTGATGAATTGGAGCCCTCGAGTAAACAAATTTTCCTAATCTTTCTGTTCAAGCGCCATCTAC | 0.719 RPM ratio (pull-down/input) |
| GATGATTGTTCTCCCAGCTGATGAATTCTATAAATCGAGTAAACAAATTTTCCTAATCTTTCTGTTCAAGCGCCATCTAC | 1.15 RPM ratio (pull-down/input) |
| GATGATTGTTCTCCCAGCTGATGAATTGTTGCGATCGAGTAAACAAATTTTCCTAATCTTTCTGTTCAAGCGCCATCTAC | 1.51 RPM ratio (pull-down/input) |
| GATGATTGTTCTCCCAGCTGATGAATTCGGTATTTCGAGTAAACAAATTTTCCTAATCTTTCTGTTCAAGCGCCATCTAC | 0.946 RPM ratio (pull-down/input) |
| GATGATTGTTCTCCCAGCTGATGAATTCCCCGACTCGAGTAAACAAATTTTCCTAATCTTTCTGTTCAAGCGCCATCTAC | 0.768 RPM ratio (pull-down/input) |
| GATGATTGTTCTCCCAGCTGATGAATTTATTGTTTCGAGTAAACAAATTTTCCTAATCTTTCTGTTCAAGCGCCATCTAC | 2.09 RPM ratio (pull-down/input) |
| GATGATTGTTCTCCCAGCTGATGAATTCTATCGGTCGAGTAAACAAATTTTCCTAATCTTTCTGTTCAAGCGCCATCTAC | 0.924 RPM ratio (pull-down/input) |
| GATGATTGTTCTCCCAGCTGATGAATTGTTTAATTCGAGTAAACAAATTTTCCTAATCTTTCTGTTCAAGCGCCATCTAC | 1.46 RPM ratio (pull-down/input) |
